{"source": "paper PMC6919601", "about": "“Identification of Plasmodium dipeptidyl aminopeptidase allosteric inhibitors by high throughput screening” (PLoS ONE, 2019)", "note": "Out of some 110,000 compounds screened, about 230 (0.21%) showed an effect of 50% or more. The list shows a part of the results.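 Also: 30 min substrate incubation versus DMSO and 10 µM JCP410 controls.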", "data": [{"target": "DPAP1 (Plasmodium falciparum, UniProt Q8IIJ9)", "sequence (Q8IIJ9 whole entry, looked up)": "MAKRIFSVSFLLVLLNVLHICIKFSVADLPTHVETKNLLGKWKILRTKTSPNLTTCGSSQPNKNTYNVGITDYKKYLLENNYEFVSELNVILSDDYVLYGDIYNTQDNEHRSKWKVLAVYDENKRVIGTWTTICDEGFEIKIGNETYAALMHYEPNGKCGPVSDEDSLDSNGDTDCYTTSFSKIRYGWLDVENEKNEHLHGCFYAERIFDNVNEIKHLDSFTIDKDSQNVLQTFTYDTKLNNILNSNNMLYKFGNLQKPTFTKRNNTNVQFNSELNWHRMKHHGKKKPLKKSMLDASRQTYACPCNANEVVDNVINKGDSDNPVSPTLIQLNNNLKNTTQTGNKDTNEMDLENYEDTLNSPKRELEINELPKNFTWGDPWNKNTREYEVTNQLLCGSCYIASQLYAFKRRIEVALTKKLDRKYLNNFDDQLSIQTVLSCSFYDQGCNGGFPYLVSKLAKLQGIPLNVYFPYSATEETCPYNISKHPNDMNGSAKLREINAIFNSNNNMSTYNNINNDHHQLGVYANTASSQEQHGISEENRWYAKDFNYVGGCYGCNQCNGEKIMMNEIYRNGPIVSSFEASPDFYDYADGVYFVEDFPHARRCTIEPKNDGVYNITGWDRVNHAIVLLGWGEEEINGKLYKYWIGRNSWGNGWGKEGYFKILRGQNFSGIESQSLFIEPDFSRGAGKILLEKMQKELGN", "experiment": "primary screen, percent inhibition; read by cleavage of a fluorogenic dipeptide substrate; higher = more effect of the substance", "design": "species or system P. falciparum D10 trophozoite lysates; single well", "units": {"% Inhibition @ 10 uM": "%"}, "values": [{"compound": "CCOc1ccc(-c2cc(NC(=O)c3ccc(OC)c(OC)c3)c(C(=O)O)s2)cc1", "% Inhibition @ 10 uM": 2.84}, {"compound": "CCCCNC(=O)c1cc(-c2cccnc2)nc2ccc(S(=O)(=O)N3CCCCCC3)cc12", "% Inhibition @ 10 uM": 0.718}, {"compound": "CC(C)Oc1ccc(C(CC(=O)N2CCOCC2)c2ccccc2)cc1", "note": "(stereo not drawn)", "% Inhibition @ 10 uM": 3.81}, {"compound": "CCn1c(=O)c2sccc2n2c(CCCC(=O)NCCCOC(C)C)nnc12", "% Inhibition @ 10 uM": 2.71}, {"compound": "CCOC(=O)C1=C(C)OC(N)=C(C#N)C1c1cccc(O)c1", "note": "(stereo not drawn)", "% Inhibition @ 10 uM": 4.01}, {"compound": "COc1cccc(C(=O)N(c2ccccc2)C2CC(C)N(C(C)=O)c3ccccc32)c1", "note": "(stereo not drawn)", "% Inhibition @ 10 uM": -0.318}, {"compound": "CCCN1CCN(C(=O)NCc2noc3ccc(C)cc23)CC1", "% Inhibition @ 10 uM": -6.47}, {"compound": "CCOC(=O)N1CCN(C(=O)c2ccc3nc(N4CCOCC4)sc3c2)CC1", "% Inhibition @ 10 uM": -2.37}, {"compound": "CC[C@H](NC(=O)C(Cc1c[nH]c2cccc(C)c12)NC(=O)c1ccc(-c2ccccc2Cl)cc1)C(=O)c1nc2ccccc2o1", "note": "(stereo partly drawn)", "% Inhibition @ 10 uM": -8.81}, {"compound": "O=c1c(-c2ccccc2)c(N(CCO)Cc2ccccc2)c1=O", "% Inhibition @ 10 uM": -9.49}, {"compound": "COc1ccc(C(=O)c2c(C)n(C)c(=O)n(C)c2=O)cc1", "% Inhibition @ 10 uM": -3.96}, {"compound": "COc1ccc(C(=O)NCCNC2=NS(=O)(=O)c3ccccc32)cc1", "% Inhibition @ 10 uM": -1.4}, {"compound": "CC(C)(C)NC(=O)/C(=C\\c1ccc(Br)cc1)NC(=O)c1cccs1", "% Inhibition @ 10 uM": -0.759}, {"compound": "Cc1cc(C)c(S(=O)(=O)NCc2ccc(C(=O)NC3CCCC3)cc2)c(C)c1", "% Inhibition @ 10 uM": 1.69}, {"compound": "Nc1sc(-c2ccccc2)c(-c2ccccc2)c1C(=O)O", "% Inhibition @ 10 uM": 6.74}, {"compound": "CCOc1ccc(-c2csc(/C(C#N)=C/c3ccc(OC)cc3)n2)cc1", "% Inhibition @ 10 uM": -0.771}, {"compound": "COc1ccc(-c2cc(C(=O)Nc3cnn(Cc4ccc(Cl)cc4Cl)c3)no2)cc1", "% Inhibition @ 10 uM": 7.44}, {"compound": "CNC(=O)c1cc2c(=O)n3ccccc3nc2n(CCc2ccccc2)c1=N", "% Inhibition @ 10 uM": -5.14}, {"compound": "COc1ccc(C2Nc3ccccc3N=C3CC(C)(C)CC(O)=C32)cc1O", "note": "(stereo not drawn)", "% Inhibition @ 10 uM": -6.44}, {"compound": "O=C(CC1(O)C(=O)Nc2ccccc21)c1ccc(Br)cc1", "note": "(stereo not drawn)", "% Inhibition @ 10 uM": 6.31}, {"compound": "CCn1c2ccccc2c2cc(CNC(C)COC)ccc21", "note": "(stereo not drawn)", "% Inhibition @ 10 uM": -5.16}, {"compound": "CCOc1ccc(/N=c2\\scc(-c3ccc(OC)cc3)n2CCO)cc1", "% Inhibition @ 10 uM": 1.15}, {"compound": "O=C(O)C1CCCCC1C(=O)N1CCOCC1", "note": "(stereo not drawn)", "% Inhibition @ 10 uM": -2.7}, {"compound": "CCn1c(C)c(CCC(=O)NC(C)CCc2ccco2)c(=O)n2nc(-c3ccccc3OC)cc12", "note": "(stereo not drawn)", "% Inhibition @ 10 uM": -6.09}, {"compound": "CSC1=N/C(=C\\c2ccc(C)o2)C(=O)S1", "% Inhibition @ 10 uM": 4.18}, {"compound": "CCc1nnc2sc(-c3cccnc3)nn12", "% Inhibition @ 10 uM": -4.67}, {"compound": "Cc1sc(NC(=O)C2CCCCC2C(=O)O)nc1-c1ccccc1", "note": "(stereo not drawn)", "% Inhibition @ 10 uM": -0.795}, {"compound": "COCCNC(=O)C(NC(=O)c1ccc(C23CC4CC(CC(C4)C2)C3)cc1)C(C)C", "note": "(stereo not drawn)", "% Inhibition @ 10 uM": -9.05}, {"compound": "CC/N=c1\\c(NS(=O)(=O)c2ccc(Cl)cc2)c(O)oc2ccccc12", "% Inhibition @ 10 uM": -1.68}, {"compound": "Nc1nc(O)cc(-c2cccc(F)c2)n1", "% Inhibition @ 10 uM": -10.7}, {"compound": "COc1ccc(CNC(=O)CCNS(=O)(=O)c2ccc(Cl)cc2)cc1", "% Inhibition @ 10 uM": 4.61}, {"compound": "C=C(C)CN(CC)Cc1ccc(C(=O)OC)cc1", "% Inhibition @ 10 uM": -4.14}, {"compound": "CCc1c(C)nc2c(C)cccc2c1O", "% Inhibition @ 10 uM": -6.83}, {"compound": "Cc1ccc(Cl)cc1NC(=O)c1ccc(Br)cc1", "% Inhibition @ 10 uM": -1.48}, {"compound": "CCc1ccc(S(=O)(=O)c2nnn3c2nc(N(CC)CC)c2sccc23)cc1", "% Inhibition @ 10 uM": -2.55}, {"compound": "Cc1ccc2oc(C(=O)NCCc3ccc(S(N)(=O)=O)cc3)cc(=O)c2c1", "% Inhibition @ 10 uM": 0.248}, {"compound": "CCOc1ccc(C(=O)Nc2ccc(C(C)=O)cc2)cc1", "% Inhibition @ 10 uM": 0.0265}, {"compound": "Cc1ccc(S(=O)(=O)N2CCN(C(=O)N3CCOCC3)CC2)cc1", "% Inhibition @ 10 uM": 1.91}, {"compound": "COc1ccc(-c2nc(S)c3c(n2)Oc2ccccc2C3)cc1O", "% Inhibition @ 10 uM": 32.1}, {"compound": "Cc1ccccc1NC(=O)c1ccc(C)c(S(=O)(=O)Nc2ccc(C(=O)O)cc2)c1", "% Inhibition @ 10 uM": -0.661}, {"compound": "C/C=C/c1ccccc1OCc1ccc(C(=O)OC)o1", "% Inhibition @ 10 uM": 0.146}, {"compound": "O=C(CN1C(=O)c2cccc3cccc(c23)C1=O)N1CCN(Cc2ccc3c(c2)OCO3)CC1", "% Inhibition @ 10 uM": 4.03}, {"compound": "COc1cc(C(=O)N2CCN(C(=O)c3c(OC)cccc3OC)CC2)cc(OC)c1OC", "% Inhibition @ 10 uM": -6.27}, {"compound": "CCCCN(C(=O)/C=C/c1ccccc1)C1=CC2CCC(C1)N2C", "note": "(stereo not drawn)", "% Inhibition @ 10 uM": -0.436}, {"compound": "Cc1ccc(C)n1-c1nnc(N2CCC(C(=O)NC(C)c3ccccc3)CC2)s1", "note": "(stereo not drawn)", "% Inhibition @ 10 uM": 1.15}, {"compound": "COc1cc2nc(S)n3nc(CCn4c(C)nc5ccccc54)nc3c2cc1OC", "% Inhibition @ 10 uM": 6.08}, {"compound": "COc1ccc(OC)c(-c2c(C#N)c(N)nc3c2c(=O)nc2sccn23)c1", "% Inhibition @ 10 uM": 16.6}, {"compound": "Cc1ccc(CC2SC(Nc3ccccn3)=NC2=O)cc1", "note": "(stereo not drawn)", "% Inhibition @ 10 uM": -0.48}, {"compound": "NC1=NC(c2ccc(Cl)cc2)n2c(nc3ccccc32)N1", "note": "(stereo not drawn)", "% Inhibition @ 10 uM": -3.43}, {"compound": "O=c1/c(=C/c2ccco2)sc2nncn12", "% Inhibition @ 10 uM": 5.55}, {"compound": "CN1CCN(CCn2c(-c3ccc(Br)cc3)cn3c4ccccc4nc23)CC1", "% Inhibition @ 10 uM": 3.1}, {"compound": "CN1CCCN(Cc2ccc(-c3ccccc3)cc2)CC1", "% Inhibition @ 10 uM": 2.47}, {"compound": "Cc1nc(CN2CCC/C2=N\\C#N)n(-c2ccccc2)n1", "% Inhibition @ 10 uM": 16.1}, {"compound": "COc1ccc(OC)c(C2C3=C(O)CCCC3=NC(C)=C2C(=O)Nc2ccccn2)c1", "note": "(stereo not drawn)", "% Inhibition @ 10 uM": -8.82}, {"compound": "O=C(Cc1c(O)nc2ccccc2c1O)NC1CCCCCCC1", "% Inhibition @ 10 uM": 3.45}, {"compound": "CCOC(=O)c1sc(NC(N)=O)c(C#N)c1C", "% Inhibition @ 10 uM": -3.48}, {"compound": "O=C1CC(c2ccc3c(c2)OCO3)c2c(n[nH]c2-c2ccc(Cl)cc2)N1", "note": "(stereo not drawn)", "% Inhibition @ 10 uM": 0.0719}, {"compound": "C=CCOc1ccc(/C=C2/C=C(c3ccc(C)cc3)OC2=O)cc1", "% Inhibition @ 10 uM": 6.58}, {"compound": "CC1CC(=O)c2c(oc3ccccc3c2=O)C1", "note": "(stereo not drawn)", "% Inhibition @ 10 uM": 2.36}, {"compound": "Brc1ccc(-c2nnc(-c3ccccc3)o2)cc1", "% Inhibition @ 10 uM": -5.23}, {"compound": "O=C1C(Cl)=C(N2CCN(C(=O)c3ccc(F)cc3)CC2)C(=O)c2ccccc21", "% Inhibition @ 10 uM": 0.147}, {"compound": "CCOC(=O)N1CCN(C(=O)CSc2nnc(CNC(=O)COc3ccc(Cl)cc3)o2)CC1", "% Inhibition @ 10 uM": -3.39}, {"compound": "CCOC(=O)c1[nH]c(C)c(C(=O)NCc2cccnc2)c1C", "% Inhibition @ 10 uM": 4.88}]}]}
